Out of some 400,000 compounds screened, about 2,200 (0.55%) were called active. Inconclusive results, whose numbers are uncertain, are shown with a selection of clear calls. The call rests on the fitted dose curve; in most records, active means well fitted inhibition curve with a large enough effect; inconclusive means small, poorly fitted or top-dose-only effect, or another doubt; inactive means no such curve, though single readings can be large or run the other way. Potencies beside an inconclusive call are fits to weak or partial responses and may not hold up.
biological target: DNA polymerase kappa (Homo sapiens) (UniProt Q9UBT6); assay: qHTS for Inhibitors of Polymerase Kappa; settings: purified Pol kappa, fluorescent DNA synthesis assay, 10 min; series mostly up to 107 µM; activity, negative = inhibition: at the top concentration
In short: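 First, compounds were pin-transferred onto 10 nM Pol kappa. After 15 min at room temperature, substrate was added to 50 nM final. Fluorescence was then measured kinetically at 0 and 10 min.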
On the % scale 0 is the no-effect control and ±100 the full control effect; potency means the concentration at half of the fitted maximal effect; tags describe the fitted curve by direction and shape.

Chain of UniProt Q9UBT6 (Q9UBT6 whole entry, looked up): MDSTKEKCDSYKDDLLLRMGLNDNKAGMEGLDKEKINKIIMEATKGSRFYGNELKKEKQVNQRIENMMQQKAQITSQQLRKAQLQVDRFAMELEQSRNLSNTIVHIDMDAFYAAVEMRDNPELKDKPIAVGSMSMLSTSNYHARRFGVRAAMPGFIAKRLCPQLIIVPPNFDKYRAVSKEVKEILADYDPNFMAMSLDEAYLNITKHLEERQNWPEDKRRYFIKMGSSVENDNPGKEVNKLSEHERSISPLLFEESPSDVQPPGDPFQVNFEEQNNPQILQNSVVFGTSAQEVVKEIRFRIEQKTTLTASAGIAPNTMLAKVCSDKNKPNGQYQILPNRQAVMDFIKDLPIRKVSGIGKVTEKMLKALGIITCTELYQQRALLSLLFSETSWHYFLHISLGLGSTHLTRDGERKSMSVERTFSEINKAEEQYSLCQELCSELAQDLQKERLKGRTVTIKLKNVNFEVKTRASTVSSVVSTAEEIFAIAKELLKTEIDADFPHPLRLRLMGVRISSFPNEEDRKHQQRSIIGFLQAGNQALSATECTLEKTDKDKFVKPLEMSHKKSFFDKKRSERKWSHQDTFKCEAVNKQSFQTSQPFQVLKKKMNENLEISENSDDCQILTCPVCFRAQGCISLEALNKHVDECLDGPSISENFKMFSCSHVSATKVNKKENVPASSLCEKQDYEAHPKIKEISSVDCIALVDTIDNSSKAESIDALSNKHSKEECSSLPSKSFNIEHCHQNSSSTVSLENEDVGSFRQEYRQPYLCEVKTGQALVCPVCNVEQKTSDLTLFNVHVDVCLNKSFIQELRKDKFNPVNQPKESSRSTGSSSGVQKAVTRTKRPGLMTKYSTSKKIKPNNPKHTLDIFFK

SMILES | Potency | activity, negative = inhibition
CCCN(C(=O)c1cc2c(s1)CCC2)c1c(N)n(Cc2ccccc2)c(=O)[nH]c1=O | inconclusive: 56.2 µM [inhibitor, partial curve, poor fit] | –
CN(C(=O)CSc1nnc(-c2ccccc2F)o1)C1CCCCC1 | – | inactive: 6.04%
CC1(C)C(=O)Nc2ccccc2N1C(=O)COC(=O)C12CC3CC(CC(O)(C3)C1)C2 | inconclusive: 79.4 µM [inhibitor, partial curve, poor fit] | –
Cc1c(Cl)cccc1NC(=S)NCCC(c1ccccc1)c1ccccc1 | – | inactive: -2.21%
CC#CCCCC(=O)Nc1cccc(C(=O)O)c1 | inconclusive: 89.1 µM [inhibitor, single point] | –
Cc1ccc(Nc2nc(N)c([N+](=O)[O-])c(NCCO)n2)cc1C | inconclusive: 89.1 µM [inhibitor, partial curve] | –
Cc1ccc(NC(=O)Cn2ncc(Cl)c(Cl)c2=O)cc1S(=O)(=O)N1CCCCC1 | inconclusive: 50.1 µM [inhibitor, partial curve, poor fit] | –
Cc1[nH]c(/C=C2\C(=O)Nc3ccc(S(=O)(=O)N(C)c4cccc(Cl)c4)cc32)c(C)c1C(=O)N1CCN(C)CC1 | inconclusive: 21.2 µM [inhibitor, single point] | –
CN(C)CCn1c(SCc2ccccc2C#N)nc2c(sc3ccccc32)c1=O | – | inactive: 1.57%
O=C(Cc1cccs1)OCC(=O)c1ccco1 | active: 25.1 µM | –
Cc1cc(C)c(NC(=O)COC(=O)CCc2ccc(S(=O)(=O)N3CCCCC3)cc2)c(C)c1 | inconclusive: 89.1 µM [inhibitor, single point] | –
COc1cccc(N2CCN(C(=O)CCS(=O)(=O)c3ccc4c(c3)oc(=O)n4C)CC2)c1 | inconclusive: 100 µM [inhibitor, single point] | –
CC1=CCC(C(=O)O)C(C(=O)Nc2ccc(-c3nc4ccc(C)cc4s3)cc2)C1 (configuration not stated) | inconclusive: 89.1 µM [inhibitor, single point] | –
Cc1ccc(-n2cccc2/C=C2\C(=N)N3N=C(c4ccco4)SC3=NC2=O)cc1 | inconclusive: 22.4 µM [inhibitor, single point] | –
Cc1cn2c(=O)cc(COC(=O)c3cccc(NC(=O)c4ccccc4C)c3)nc2s1 | – | inactive: -12.2% [at 60.1 µM]
CCc1ccc(NS(=O)(=O)c2ccc3[nH]cc(C(=O)NCCCOC(C)C)c(=O)c3c2)cc1 | inconclusive: 89.1 µM [inhibitor, single point] | –
CCCCCC(=O)Nc1ccc(S(=O)(=O)Nc2cc(OC)nc(OC)n2)cc1 | inconclusive: 10 µM [inhibitor, partial curve] | –
